According to the supplement of paper PMC4604168 (melanoma cell lines):
The list shows a part of the results. Most values come without repeats; read them as rough.
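Further: cells treated in 1,536-well plates, then fixed and DAPI-stained, with nuclei counted from automated high-throughput microscope images.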

What follows are molecules tested on RPMI7951 (assay: cell count relative to DMSO control; melanoma cells; higher = more viable cells). Details: library dose: standard library concentration; 72 h.
`NC(=O)c1ccc(N(C(N)=O)c2c(F)cccc2F)nc1-c1ccc(F)cc1F` + O=c1cc(-c2cccc3c2Sc2ccccc2S3)oc(N2CCOCC2)c1 [KU55933] (first compound 2 µM, partner dose 5 µM) showed a cell count of 85.6%. Molecule `CN(NC(=O)CC(=O)NN(C)C(=S)c1ccccc1)C(=S)c1ccccc1` + CCc1ccc(CCOc2ccc(CC3SC(=O)NC3=O)cc2)nc1 [pioglitazone] (first compound 0.03 µM, partner dose 10 µM) has a cell count of 88.8%. `NC(=O)c1ccc(N(C(N)=O)c2c(F)cccc2F)nc1-c1ccc(F)cc1F` + c1cc(-c2cnn3cc(-c4ccc(OCCN5CCCCC5)cc4)cnc23)ccn1 [Dorsomorphin] (first compound 2 µM, partner dose 2 µM) showed a cell count of 89.5%. Work on `Cc1ccc(NC(=O)c2cccc(N(C)C)c2)cc1NC(=O)c1ccc(O)cc1` + COc1ccc(-c2ccc3c(N4CCOCC4)nc(N4C[C@@H](C)O[C@@H](C)C4)nc3n2)cc1CO [KU0063794] (first compound 10 µM, partner dose 0.1 µM) yielded a cell count of 62.3%. Work on `NC(=O)c1ccc(N(C(N)=O)c2c(F)cccc2F)nc1-c1ccc(F)cc1F` + CCN(CC)CCCCNc1ncc2cc(-c3cc(OC)cc(OC)c3)c(NC(=O)NC(C)(C)C)nc2n1 [PD173074] (first compound 2 µM, partner dose 0.5 µM) yielded a cell count of 133%. `CCCCCCCCc1ccc(CCC(N)(CO)CO)cc1` [fingolimod] + Oc1nc(-c2ccc(C(F)(F)F)cc2)nc2c1CSCC2 [XAV939] (first compound 10 µM, partner dose 10 µM) showed a cell count of 52.2%.
